{"source": "the supplement of paper PMC12067230", "note": "This is a noisy data set.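 Further: [psi-pin-] Saccharomyces cerevisiae expressing SupN fusions, induced by 100 µM Cu2SO4, selected 7 d at 30 °C without adenine and uracil, scored by deep sequencing of output versus input.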", "data": [{"assay": "amyloid nucleation score relative to library mode (yeast Sup35 reporter selection) (log enrichment difference); higher = more amyloid nucleation", "conditions": "random library (experiment): 1;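 active = nucleation score significantly above 0 at FDR 0.05; inactive = not significantly above 0 or absent from output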", "values": [{"sequence": "EASNCFAIRHFENKFAVETLICRCVIRDMVMVLG", "amyloid nucleation score": "inactive"}, {"sequence": "EASNCFAIRHFENKFAVETLICRCVLGMVLCCG", "amyloid nucleation score": "inactive"}, {"sequence": "EASNCFAIRHFENKFAVETLICRCVLRKVQAWNG", "amyloid nucleation score": "inactive"}, {"sequence": "EASNCFAIRHFENKFAVETLICRCVNGVLVDP", "amyloid nucleation score": "inactive"}, {"sequence": "EASNCFAIRHFENKFAVETLICRCVSSGSECACK", "amyloid nucleation score": 5.28}, {"sequence": "EASNCFAIRHFENKFAVETLICRCWGLRSRKARG", "amyloid nucleation score": 7.06}, {"sequence": "EASNCFAIRHFENKFAVETLICRCYKFVVRVNEG", "amyloid nucleation score": 2.12}, {"sequence": "EASNCFAIRHFENKFAVETLICRCYYEY", "amyloid nucleation score": "inactive"}, {"sequence": "EASNCFAIRHFENKFAVETLICRDCCGISVLYYG", "amyloid nucleation score": 4.49}, {"sequence": "EASNCFAIRHFENKFAVETLICRDG", "amyloid nucleation score": "inactive"}, {"sequence": "EASNCFAIRHFENKFAVETLICRDGNGR", "amyloid nucleation score": 0.335}, {"sequence": "EASNCFAIRHFENKFAVETLICRDHSTVH", "amyloid nucleation score": "inactive"}, {"sequence": "EASNCFAIRHFENKFAVETLICRDKGSLITFFWA", "amyloid nucleation score": 6.83}, {"sequence": "EASNCFAIRHFENKFAVETLICRDLSLRSRGPDR", "amyloid nucleation score": 4.31}, {"sequence": "EASNCFAIRHFENKFAVETLICRDLVGLALAYVQ", "amyloid nucleation score": 2.04}, {"sequence": "EASNCFAIRHFENKFAVETLICRDMLSGSSCSFR", "amyloid nucleation score": "inactive"}, {"sequence": "EASNCFAIRHFENKFAVETLICRDMY", "amyloid nucleation score": "inactive"}, {"sequence": "EASNCFAIRHFENKFAVETLICRDNCDDGLVGPL", "amyloid nucleation score": "inactive"}, {"sequence": "EASNCFAIRHFENKFAVETLICRDPMWQDLASAF", "amyloid nucleation score": "inactive"}, {"sequence": "EASNCFAIRHFENKFAVETLICRDQWCFCQFTPS", "amyloid nucleation score": "inactive"}, {"sequence": "EASNCFAIRHFENKFAVETLICRDR", "amyloid nucleation score": "inactive"}, {"sequence": "EASNCFAIRHFENKFAVETLICRDRA", "amyloid nucleation score": -0.0935}, {"sequence": "EASNCFAIRHFENKFAVETLICRDRQF", "amyloid nucleation score": "inactive"}, {"sequence": "EASNCFAIRHFENKFAVETLICRDS", "amyloid nucleation score": "inactive"}, {"sequence": "EASNCFAIRHFENKFAVETLICRDSGRIVKYWTE", "amyloid nucleation score": "inactive"}]}, {"assay": "amyloid nucleation score relative to library mode (yeast Sup35 reporter selection) (log enrichment difference); higher = more amyloid nucleation", "conditions": "random library (experiment): 2", "values": [{"sequence": "EASNCFAIRHFENKFAVETLICRCVYI", "amyloid nucleation score": "inactive"}, {"sequence": "EASNCFAIRHFENKFAVETLICRDASGSLQIVEW", "amyloid nucleation score": "inactive"}, {"sequence": "EASNCFAIRHFENKFAVETLICRDD", "amyloid nucleation score": "inactive"}, {"sequence": "EASNCFAIRHFENKFAVETLICRDFS", "amyloid nucleation score": "inactive"}, {"sequence": "EASNCFAIRHFENKFAVETLICRDHTWLMDFSTQ", "amyloid nucleation score": 2.56}, {"sequence": "EASNCFAIRHFENKFAVETLICRDKDTSCTVWVS", "amyloid nucleation score": "inactive"}, {"sequence": "EASNCFAIRHFENKFAVETLICRDLIANLNCNFV", "amyloid nucleation score": 6.13}, {"sequence": "EASNCFAIRHFENKFAVETLICRDLSWYDNRRLV", "amyloid nucleation score": 4.3}, {"sequence": "EASNCFAIRHFENKFAVETLICRDNLYVASSYHR", "amyloid nucleation score": 3.05}, {"sequence": "EASNCFAIRHFENKFAVETLICRDNSFKLCCGLC", "amyloid nucleation score": 7.43}, {"sequence": "EASNCFAIRHFENKFAVETLICRDSGHDVRKLDM", "amyloid nucleation score": "inactive"}, {"sequence": "EASNCFAIRHFENKFAVETLICRDSGSLIFVMYR", "amyloid nucleation score": "inactive"}]}, {"assay": "amyloid nucleation score relative to library mode (yeast Sup35 reporter selection) (log enrichment difference); higher = more amyloid nucleation; sequences are the first 22 residues of the Bri2 peptide extended by up to 12 random residues", "conditions": "random library (experiment): 3", "values": [{"sequence": "EASNCFAIRHFENKFAVETLICRCWCHGPRWGSV", "amyloid nucleation score": "inactive"}, {"sequence": "EASNCFAIRHFENKFAVETLICRCWRPGALQAWK", "amyloid nucleation score": -0.0179}, {"sequence": "EASNCFAIRHFENKFAVETLICRCWSSDGRKSGW", "amyloid nucleation score": "inactive"}, {"sequence": "EASNCFAIRHFENKFAVETLICRCYWGSCCSEVT", "amyloid nucleation score": 5.72}, {"sequence": "EASNCFAIRHFENKFAVETLICRD", "amyloid nucleation score": "inactive"}, {"sequence": "EASNCFAIRHFENKFAVETLICRDERWA", "amyloid nucleation score": "inactive"}, {"sequence": "EASNCFAIRHFENKFAVETLICRDGKTCGMFER", "amyloid nucleation score": "inactive"}, {"sequence": "EASNCFAIRHFENKFAVETLICRDGRSEQSIHVL", "amyloid nucleation score": "inactive"}, {"sequence": "EASNCFAIRHFENKFAVETLICRDGVLMSAVLAT", "amyloid nucleation score": "inactive"}, {"sequence": "EASNCFAIRHFENKFAVETLICRDMRAYTIRMDP", "amyloid nucleation score": -0.5}, {"sequence": "EASNCFAIRHFENKFAVETLICRDRKEWVIQNRY", "amyloid nucleation score": 2.5}]}]}
